Measurements taken from PubChem BioAssay (EPA / NIEHS).
For part of these data: The hits were mostly taken out for another list; the other results follow. Results filed as inconclusive are left out. The entries are a selection whose mix differs from that of the whole data set. Active and inactive are the calls of the source. Rule for the calls, unless noted: active = hit-call score of the fitted dose curve at least 0.9, where 1 is the maximum; inconclusive = response in the unintended direction; inactive = score below 0.9.

Columns and labels:
[1] = target: Cellular tumor antigen p53 (Homo sapiens) (UniProt P04637); assay: TOX21_p53_BLA_p2_ratio: Tox21 HCT-116 p53 Agonism Beta-lactamase Assay, Ratio, Phase 2 (AID 2283592)
UniProt P04637, sequence (P04637 whole entry, looked up): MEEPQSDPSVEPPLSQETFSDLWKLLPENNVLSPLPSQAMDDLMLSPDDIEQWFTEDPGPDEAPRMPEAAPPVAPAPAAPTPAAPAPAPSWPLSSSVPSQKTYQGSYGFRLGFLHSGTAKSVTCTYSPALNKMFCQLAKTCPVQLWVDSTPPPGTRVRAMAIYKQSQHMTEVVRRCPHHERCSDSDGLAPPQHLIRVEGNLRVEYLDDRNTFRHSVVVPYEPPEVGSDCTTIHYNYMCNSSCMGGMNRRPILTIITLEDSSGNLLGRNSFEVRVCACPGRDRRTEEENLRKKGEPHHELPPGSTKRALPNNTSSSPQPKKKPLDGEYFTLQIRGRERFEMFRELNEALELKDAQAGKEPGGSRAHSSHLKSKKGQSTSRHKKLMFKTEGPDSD
Summary of the method: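 DMSO-normalized, positive-direction endpoint derived from the 460 nm/530 nm FRET ratio in HCT116 p53 beta-lactamase reporter cells exposed 16 h at 37C and loaded with CCF4-AM for 2 h.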

[2] = TOX21_p53_BLA_p2_viability: Viability Assessment in the Tox21 HCT-116 p53 Agonism Beta-lactamase Assay, Phase 2 (AID 2283591);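 note: compound exposure lasted 16 h at 37 °C; actives lower the ATP signal meaning cytotoxicity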
Summary of the method: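 HCT116 p53-bla cells, 4000/well, dosed after 5 h plating (217-fold dilution of DMSO stocks) and incubated 16 h at 37C. Viability taken as cellular ATP by CellTiter-Glo luminescence after 30 min RT; signal loss marks cytotoxicity.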

[3] = ACEA_AR_agonist_AUC_viability: ACEA Biosciences xCELLigence Real-Time Cell Analysis on Androgen Receptor Agonism for Viability (AID 2283775)
Summary of the method: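 Viability endpoint from xCELLigence impedance in 22Rv1 prostate cells at 80 h. Eight-point series, 100 uM maximum final.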

[4] = read-out: Transforming Growth Factor (TGFB1), TGFB1 (gene 7040); assay: LTEA_HepaRG_TGFB1: Life Technologies and Expression Analysis (LTEA) Assay for Transforming Growth Factor (TGFB1) Transporter using HepaRG (AID 2283533; active = hit-call score of the fitted dose curve at least 0.9, where 1 is the maximum; inactive = score below 0.9); conditions: actives raise or lower the signal; mRNA level, 48 h
Summary of the method: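 Eight-point concentration-response (max 100 uM, half-log) in HepaRG under serum-free induction conditions, 48 h. TGFB1 mRNA by qRT-PCR, housekeeping-normalized.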

[5] = ATG_XTT_Cytotoxicity: Cytotoxicity Assessment in the Attagene TRANS-FACTORIAL HepG2 Assay (AID 2283584)
Summary of the method: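 24 h chemical exposure of reporter-transfected HepG2; XTT signal loss vs DMSO indicates cytotoxicity.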

[6] = target: zebrafish Thyroid Hormone Receptor alpha (TRa), thraa (gene 30670) (UniProt Q98867); assay: ATG_zfTRa_XSP2: Attagene TRANS-FACTORIAL Multi-Species (XSP1) HepG2 Assay for zebrafish Thyroid Hormone Receptor alpha (TRa) (AID 2283832);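 note: actives raise zebrafish TRa-Gal4 reporter transcript above DMSO baseline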
UniProt Q98867, sequence (Q98867 whole entry, looked up, the tested form may be a part): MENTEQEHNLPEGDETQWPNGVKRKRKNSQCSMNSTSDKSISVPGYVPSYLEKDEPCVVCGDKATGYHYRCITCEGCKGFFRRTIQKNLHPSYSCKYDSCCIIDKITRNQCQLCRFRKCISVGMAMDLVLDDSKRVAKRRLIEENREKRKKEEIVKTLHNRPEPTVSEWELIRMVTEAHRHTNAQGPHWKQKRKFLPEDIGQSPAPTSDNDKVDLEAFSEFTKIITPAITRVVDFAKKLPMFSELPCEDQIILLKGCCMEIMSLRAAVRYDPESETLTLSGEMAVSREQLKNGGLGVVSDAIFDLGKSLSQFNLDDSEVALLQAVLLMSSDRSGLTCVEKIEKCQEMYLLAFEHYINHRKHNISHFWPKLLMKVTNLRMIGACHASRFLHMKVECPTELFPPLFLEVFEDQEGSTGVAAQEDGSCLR
Summary of the method: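 Readout is reporter mRNA induction, quantified by RT-PCR and capillary electrophoresis with fluorescent labelling, after 24 h compound exposure of transiently transfected HepG2 cells carrying NR-Gal4 chimera reporters. Activity fitted upward relative to DMSO.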

[7] = system: zebrafish Peroxisome Proliferator-activated Receptor gamma (PPARg), gene 557037; assay: ATG_zfPPARg_XSP2: Attagene TRANS-FACTORIAL Multi-Species (XSP2) HepG2 Assay for zebrafish Peroxisome Proliferator-activated Receptor gamma (PPARg) (AID 2283833);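 note: reporter mRNA from a zebrafish PPARg GAL4 chimera measured by RT-PCR and capillary electrophoresis; actives increase reporter signal over DMSO so AC50 reflects activation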
Summary of the method: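 HepG2, transient MRTU transfection, 24 h compound; zfPPARg-GAL4 reporter mRNA by RT-PCR + capillary electrophoresis; gain-of-signal vs DMSO.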

[8] = system: turtle Thyroid Hormone Receptor, alpha (TRa), gene 101949057; assay: ATG_trTRa_XSP2: Attagene TRANS-FACTORIAL Multi-Species (XSP1) HepG2 Assay for turtle Thyroid Hormone Receptor, alpha (TRa) (AID 2283834);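 note: hits raise reporter mRNA over the DMSO baseline so AC50 marks activators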
Summary of the method: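 Multiplexed TRANS reporter assay; HepG2 carrying NR-Gal4 constructs treated 24 h. mRNA of the GAL4-UAS reporter quantified via labelled RT-PCR fragments on a genetic analyzer, vs DMSO negative control.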

[9] = CCTE_Harrill_HTTr_CellCount_MCF7: CCTE's Cell Proliferation Assessment for the High-Throughput Transcriptomics (HTTr) Platform, Harrill Lab (AID 2284012);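 note: count of Hoechst-stained nuclei per well by high-content imaging in MCF-7 cells; cells exposed to compound for six hours; intended direction is loss of nuclei count meaning fewer cells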
Summary of the method: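 Readout: Hoechst nuclear count by high-content imaging. MCF-7, 8-point dilution series, 6 h exposure. Bidirectional fit vs DMSO baseline.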

[10] = CCTE_Mundy_HCI_Cortical_Synap_Neur_Matur_NeuriteLength: CCTE's Synaptogenesis and Neurite Maturation Assay in rat cortical cells for Neurite Length, Mundy Lab (AID 2284214; active = hit-call score of the fitted dose curve at least 0.9, where 1 is the maximum; inactive = score below 0.9)
Summary of the method: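 Read-out: high-content imaging of MAP2-labelled neurites, with synaptophysin and Hoechst co-stain, in rat cortical cultures fixed at DIV 12. Activity fitted in positive direction relative to DMSO baseline.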

[11] = IUF_NPC2b_neuronal_migration_120hr: Leibniz Research Institute for Environmental Medicine (IUF) 120-hour Neural Progenitor Cell Migration Assay for Neuron Migration (NPC2b) (AID 2284300; active = hit-call score of the fitted dose curve at least 0.9, where 1 is the maximum; inactive = score below 0.9)
Summary of the method: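 Fetal human NPC spheres migrate on PDL/laminin during 120 h compound treatment; neuronal migration distance, glia-normalized, scored versus DMSO control.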

[12] = read-out: Signal transducer and activator of transcription 3 (Homo sapiens) (UniProt P40763); assay: LTEA_HepaRG_STAT3: Life Technologies and Expression Analysis (LTEA) Assay for Signal transducer and activator of transcription (STAT3) using HepaRG (AID 2283529; active = hit-call score of the fitted dose curve at least 0.9, where 1 is the maximum; inactive = score below 0.9); conditions: actives raise or lower the signal; mRNA level, 48 h
UniProt P40763, sequence (P40763 whole entry, looked up): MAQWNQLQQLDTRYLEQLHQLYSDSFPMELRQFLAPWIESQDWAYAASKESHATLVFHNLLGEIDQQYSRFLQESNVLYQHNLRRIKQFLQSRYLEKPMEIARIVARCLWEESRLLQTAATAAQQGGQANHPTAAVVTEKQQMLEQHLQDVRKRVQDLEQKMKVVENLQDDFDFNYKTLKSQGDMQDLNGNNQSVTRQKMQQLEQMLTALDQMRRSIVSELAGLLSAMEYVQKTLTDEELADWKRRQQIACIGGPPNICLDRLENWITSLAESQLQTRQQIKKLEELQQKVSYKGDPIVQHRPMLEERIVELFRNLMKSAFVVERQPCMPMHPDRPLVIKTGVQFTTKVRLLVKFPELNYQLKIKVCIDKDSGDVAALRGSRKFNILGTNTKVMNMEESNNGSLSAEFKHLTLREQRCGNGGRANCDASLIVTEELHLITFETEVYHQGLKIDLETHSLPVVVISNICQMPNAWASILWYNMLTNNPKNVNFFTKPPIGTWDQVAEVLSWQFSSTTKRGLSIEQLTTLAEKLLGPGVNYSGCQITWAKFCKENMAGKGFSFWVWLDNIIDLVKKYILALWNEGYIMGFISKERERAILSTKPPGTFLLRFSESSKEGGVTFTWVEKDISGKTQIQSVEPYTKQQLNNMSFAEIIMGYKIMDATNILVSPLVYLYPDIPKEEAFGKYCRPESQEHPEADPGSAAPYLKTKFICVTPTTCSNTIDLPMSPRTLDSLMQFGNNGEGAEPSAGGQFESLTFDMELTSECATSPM
Summary of the method: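 HepaRG, 48 h exposure, 8-pt half-log series (top 100 uM), 0.5% DMSO vehicle, duplicates. Readout: STAT3 transcript by Fluidigm qRT-PCR, housekeeping-normalized; bidirectional fit vs DMSO baseline.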

[13] = read-out: Tumor necrosis factor receptor 1 (TNFRSF1A), TNFRSF1A (gene 7132); assay: LTEA_HepaRG_TNFRSF1A: Life Technologies and Expression Analysis (LTEA) Assay for Tumor necrosis factor receptor 1 (TNFRSF1A) using HepaRG (AID 2283535; active = hit-call score of the fitted dose curve at least 0.9, where 1 is the maximum; inactive = score below 0.9); conditions: actives raise or lower the signal; mRNA level, 48 h
Summary of the method: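 Assay uses 48 h chemical treatment of differentiated HepaRG monolayers, tested in duplicate at eight concentrations from 100 uM downward in 0.5% DMSO. mRNA is normalized to ACTB, GAPDH and POLR2A, with induction or suppression fitted relative to vehicle.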

[14] = Tanguay_ZF_120hpf_PE_legacy: (Legacy) Oregon State University Tanguay Lab 120 Hour Post-fertilization zebrafish Assay for Pericardial Edema (AID 2283640)

## OCC(F)(F)F
[1]
  outcome: inactive

## C=CN1CCCC1=O
[2]
  outcome: inactive
[3]
  outcome: inactive

## O=C(N[C@@H](Cc1ccccc1)[C@@H](O)C(=O)N1C[C@@H](O)[C@@H](O)C1)c1cc2cc(Cl)ccc2[nH]1
[4]
  outcome: inactive

## COc1ccc(C(=O)CC(=O)c2ccc(C(C)(C)C)cc2)cc1
[2]
  outcome: inactive

## CC(=O)C1=C(C)[C@@H]2C[C@@]3(C1)[C@H](C)CC[C@H]3C2(C)C
[2]
  outcome: inactive

## O=C(O)Cc1cc(I)c(Oc2ccc(O)c(I)c2)c(I)c1
[5]
  outcome: inactive
[6]
  AC50: active: 0.00135 µM
[7]
  outcome: inactive
[8]
  AC50: active: 0.000957 µM

## N#CCN(CC#N)CCN(CC#N)CC#N
[1]
  outcome: inactive

## Fc1ccc([C@@H]2CCNC[C@H]2COc2ccc3c(c2)OCO3)cc1
[2]
  AC50: active: 34.1 µM

## C=CC(C)(CCC=C(C)C)OC=O (stereo unspecified)
[5]
  outcome: inactive

## CC(C)n1c(/C=C/[C@@H](O)C[C@@H](O)CC(=O)O)c(-c2ccc(F)cc2)c2ccccc21
[5]
  outcome: inactive
[9]
  outcome: inactive

## CN(C)C(=O)CNC(=O)Cc1ccccc1
[2]
  outcome: inactive

## COc1ccc(C(Cl)=C(c2ccc(OC)cc2)c2ccc(OC)cc2)cc1
[2]
  outcome: inactive

## C[C@@H]1C[C@H]2[C@@H]3CCC4=CC(=O)C=C[C@]4(C)[C@@]3(F)[C@@H](O)C[C@]2(C)[C@@]1(O)C(=O)CO
[2]
  outcome: inactive
[10]
  outcome: inactive
[11]
  outcome: inactive

## O=C(O)c1cccc(N(Cc2cccnc2)c2ccc(OC(F)F)c(OC(F)F)c2)c1
[12]
  AC50: active: 9.92 µM
[13]
  outcome: inactive

## O=c1cc(-c2ccccc2)oc2cc(O)cc(O)c12
[1]
  AC50: active: 39.6 µM

## NCCCC[C@H](NC(=O)[C@@H]1CCCN1C(=O)[C@@H]1CSSC[C@H](NC(=O)CNC(=O)CNC(=O)CN)C(=O)N[C@@H](Cc2ccc(O)cc2)C(=O)N[C@@H](Cc2ccccc2)C(=O)N[C@@H](CCC(N)=O)C(=O)N[C@@H](CC(N)=O)C(=O)N1)C(=O)NCC(N)=O
[2]
  outcome: inactive

## CCCCC(CC)COCC1CO1 (stereo unspecified)
[5]
  outcome: inactive

## COc1c(O)cc2c(c1O)[C@@H]1O[C@H](CO)[C@@H](O)[C@H](O)[C@H]1OC2=O
[1]
  outcome: inactive

## CCN(CC)CCOc1ccc(C(O)(Cc2ccc(Cl)cc2)c2ccc(C)cc2)cc1 (stereo unspecified)
[1]
  AC50: active: 43.5 µM

## Cc1ccc(S)cc1
[5]
  outcome: inactive

## c1ccc2[nH]c(-c3cscn3)nc2c1
[4]
  outcome: inactive
[14]
  outcome: inactive

## Cc1ccc(C(C)(C)C)c(O)c1
[2]
  outcome: inactive

## O=C1CC2(CCCC2)CC(=O)N1CCNCC1COc2ccccc2O1 (stereo unspecified)
[2]
  outcome: inactive

## COc1cccc(N(C)C(=S)Oc2ccc3c(c2)CCCC3)n1
[2]
  outcome: inactive

## CCc1c(C)[nH]c2c1C(=O)C(CN1CCOCC1)CC2 (stereo unspecified)
[2]
  outcome: inactive
[1]
  outcome: inactive

## COC1[C@@H](O[C@@H]2O[C@H](C)[C@@H](O[C@H]3C[C@@](C)(O)[C@H](OC(=O)CC(C)C)[C@H](C)O3)[C@H](N(C)C)[C@H]2O)[C@@H](CC=O)C[C@@H](C)[C@@H](O)/C=C/C=C/C[C@@H](C)OC(=O)C[C@H]1OC(C)=O (stereo partly specified)
[2]
  outcome: inactive
